# Measured values as given in the supplement of paper PMC3724861.
# Some of the results follow.
# System: T1, Caupolican (Caup) homeodomain DNA-binding domain
# T1 sequence: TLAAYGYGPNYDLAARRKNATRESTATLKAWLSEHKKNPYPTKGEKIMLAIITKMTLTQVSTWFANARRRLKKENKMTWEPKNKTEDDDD
# Test: PBM E-score (8-mer, recovered from the published 9-mer minima) (E-score (dimensionless, -0.5 to 0.5)); Drosophila protein; higher = stronger relative binding preference, active = 0.31 or more
# Outline: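 An enrichment score, with higher meaning stronger, expresses relative binding preference for each short DNA word. The protein used was Caup's homeodomain DNA-binding domain (residues 214-303), produced by in vitro transcription and translation and tested at 100 nM on custom-designed protein binding microarrays. The 8-mer values were recovered from published 9-mer scores, each equal to the lower of its two constituent 8-mer scores.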
row,Sequence,PBM E-score
1,ATGCGGCA,inactive: -0.0769
2,GCCAATCC,inactive: -0.167
3,CTCAGGGA,inactive: -0.163
4,CCTGCTCG,inactive: -0.134
5,CTCGACGA,inactive: -0.0765
6,AAAGTAGA,inactive: 0.0401
7,GCACTGGA,inactive: -0.136
8,GATCGCTA,inactive: -0.0372
9,CTAAGGGC,inactive: -0.144
10,AGAGTGCC,inactive: -0.179
11,GCAATTTA,inactive: 0.149
12,CGGCGGAG,inactive: -0.233
13,CCATCCGA,inactive: 0.022
14,ATTTGACA,active: 0.347
15,ATAATCAA,inactive: 0.0548
16,GTCTAATA,inactive: 0.105
17,TCGGGAAA,inactive: 0.0245
18,TATGATAA,inactive: 0.207
19,AAACGCAT,inactive: 0.0276
20,CCCGACTA,inactive: -0.11
21,CGGATAAA,inactive: 0.0379
22,CGCTCTAC,inactive: 0.0269
23,ACTTTACA,inactive: 0.272
24,TATTGGAA,inactive: 0.124
25,ATTGCCGG,inactive: -0.0964

row,Sequence,PBM E-score
1,CAGCGCAC,inactive: -0.0973
2,AGGCTCGG,inactive: -0.114
3,GTCTGATA,inactive: 0.189
4,AGAAACCG,inactive: -0.0762
5,GCAGGGGC,inactive: -0.202
6,TAAAATCA,inactive: 0.13
7,CGACCGCC,inactive: -0.111
8,CGGGCACA,inactive: -0.102
9,CTCCAGGA,inactive: -0.203
10,GCCGATAA,inactive: -0.0402
11,AACATGTT,active: 0.45
12,CACGGAGA,inactive: -0.0466
13,CGAATATA,inactive: 0.0542
14,CGATCAGA,inactive: -0.0486
15,AGTACTTG,inactive: 0.123
16,TAATTGGA,inactive: 0.0559
17,AAGTGATA,inactive: 0.0619
18,AAGTTTCG,inactive: 0.037
19,ACCTCAAT,≥ 0.0676
20,CCAAACCC,inactive: -0.1
21,AACAGGCC,inactive: -0.0603
22,ATGTAATG,active: 0.37
23,TTCAGAAA,inactive: -0.0521
24,CAAGCCTC,inactive: -0.106
25,GGAGCAAA,inactive: -0.0721

row,Sequence,PBM E-score
1,ACGGCGGG,inactive: -0.185
2,CGGGGCGC,inactive: -0.306
3,ATGCGCAG,inactive: -0.135
4,ATAGGATA,inactive: 0.122
5,AGTCCCTA,inactive: -0.136
6,GGGTCAAA,inactive: -0.108
7,GTTTCCAA,inactive: 0.0825
8,CTAACAAC,inactive: 0.278
9,GACTAAAA,inactive: -0.019
10,AACTTACC,inactive: -0.0127
11,ACGTATAG,inactive: 0.108
12,GCTTCCAA,inactive: -0.0538
13,AGCGGCGA,inactive: -0.149
14,GCTTTGCC,inactive: -0.189
15,AGTCAATA,inactive: 0.0895
16,AAATTCTA,inactive: 0.126
17,ACGGATCA,inactive: 0.0735
18,CCGGTATA,inactive: 0.111
19,TCCCCACA,inactive: -0.133
20,GCAAAGTA,inactive: 0.0214
21,AACCTGGG,inactive: -0.119
22,TTAACTAA,inactive: 0.169
23,AAGGTTGT,inactive: 0.278
24,CCCGCACA,inactive: -0.146
25,AGTGAGGA,inactive: -0.0422

row,Sequence,PBM E-score
1,AAAAGCCC,inactive: -0.152
2,GGGTTCTA,inactive: -0.18
3,AAAGCTTG,inactive: -0.00031
4,GCGCAGGA,inactive: -0.236
5,AATACCCT,inactive: -0.0149
6,CATACGAG,inactive: 0.0982
7,CTTCTATA,inactive: 0.0409
8,CCTTACCC,inactive: -0.133
9,AAAGTCTG,inactive: 0.0248
10,CTCCGGTA,inactive: -0.0601
11,CTGTTCAC,inactive: 0.147
12,CATCAATG,inactive: 0.122
13,CACTGACA,inactive: 0.191
14,TCAGCTCA,inactive: -0.0739
15,CTCCGCTC,inactive: -0.188
16,ACACGGCA,inactive: 0.196
17,ATGCTTCC,inactive: 0.0143
18,ATTACCCG,inactive: 0.0487
19,AAGGAATC,inactive: 0.0695
20,GTTAGCGA,inactive: 0.0994
21,ACACCTGA,inactive: 0.169
22,ACAGGCAG,inactive: 0.0868
23,ACCTTATC,inactive: -0.00398
24,GCCTTCTA,inactive: -0.229
25,AGCCTCAA,inactive: -0.153

row,Sequence,PBM E-score
1,AAGACGGT,≥ -0.03
2,CCGGTGGC,inactive: -0.284
3,GTTGTGCA,inactive: 0.0605
4,GTTTTTGA,inactive: 0.084
5,ACGGCATC,inactive: -0.0217
6,ACCCAATG,inactive: 0.00581
7,ATGTACTC,inactive: 0.303
8,CCCACCCG,inactive: -0.0964
9,AACTTCGT,inactive: 0.0347
10,CTGAAAAG,inactive: -0.0538
11,CAGGACCA,inactive: -0.116
12,ATCCATGA,inactive: 0.0343
13,CCGTGGCC,inactive: -0.32
14,AGCCGAAG,inactive: -0.174
15,GAGCGTAC,inactive: 0.0018
16,AGCGATTA,inactive: 0.0554
17,ATTGCCAC,inactive: 0.0589
18,GAACGTTC,≥ 0.0202
19,CCTTGCAC,inactive: 0.0128
20,CTGAGCAA,inactive: 0.0176
21,ATCGTGCC,inactive: -0.0475
22,TCCAACCA,inactive: -0.042
23,ATCTAGGG,inactive: 0.0243
24,GAGTGAAA,inactive: 0.0402
25,GACGTCTC,inactive: -0.0958

row,Sequence,PBM E-score
1,ATTTAGGC,inactive: 0.0503
2,ACCAAAAA,inactive: 0.0475
3,AACCAAAC,inactive: -0.0845
4,AGCACACC,inactive: -0.0258
5,AGGCTCCC,inactive: -0.236
6,CAGATCTC,inactive: -0.0544
7,AATGGGGT,≥ 0.0023
8,CTGGAGCC,inactive: -0.202
9,ACCCCGGT,inactive: -0.137
10,CCTACAGA,inactive: -0.0403
11,ATCCTAGG,inactive: -0.0799
12,AGCGAGAT,inactive: -0.119
13,CGAGCACG,inactive: -0.067
14,GCAAACCA,inactive: 0.0628
15,ATCGCTTC,inactive: -0.0151
16,CTTAAGGC,inactive: -0.217
17,ATTTGGGC,inactive: -0.0771
18,GCCGAGGC,inactive: -0.148
19,CGTAGTTC,inactive: -0.033
20,GGTTAAAC,inactive: 0.0743
21,CAACCACG,inactive: 0.17
22,GGTTATAA,inactive: 0.118
23,CTATGCCA,inactive: 0.0515
24,GCTAAACA,inactive: 0.132
25,CTGCAGGC,inactive: -0.159

row,Sequence,PBM E-score
1,AAAGGCGT,inactive: -0.125
2,GCCTCAAA,inactive: -0.112
3,AACCAAGG,inactive: -0.00969
4,AAGCCTAT,inactive: -0.0364
5,GAAGCGAC,inactive: -0.0318
6,ATCGTGGA,inactive: -0.0656
7,CGAGGATA,inactive: -0.00954
8,AGAGGGTG,inactive: -0.0938
9,GCCGCGTA,inactive: -0.184
10,AACTGGTC,inactive: 0.0358
11,AGTAGGCC,inactive: -0.0636
12,CTAGCGGC,inactive: -0.248
13,GTAGCTAA,inactive: 0.0032
14,CAGGCAGA,inactive: -0.0719
15,CATGCCTC,inactive: -0.00058
16,AGCCTTCG,inactive: -0.183
17,CATGCTCA,inactive: 0.139
18,TGCAAGCA,inactive: -0.0266
19,CGTCATTC,inactive: 0.0425
20,AGTCGTCG,inactive: -0.112
21,GTCTGCGA,inactive: -0.0103
22,AGATGATC,inactive: 0.00803
23,CCATAGGG,inactive: -0.0973
24,CTAAGTGC,inactive: -0.0672
25,ACTGCCCA,≥ -0.0495

row,Sequence,PBM E-score
1,CGTGAAAG,inactive: 0.0327
2,ATGCGCAA,inactive: -0.0346
3,ATTATCCC,≥ 0.12
4,ACCAGCTA,inactive: 0.0236
5,AGCAGTTG,inactive: 0.00467
6,AAACGTGA,inactive: 0.0748
7,GCTCCCAA,inactive: -0.177
8,ACTGGTAA,inactive: 0.1
9,GCTCGCCA,inactive: -0.167
10,GCCGCAGA,inactive: -0.21
11,CATTTCAG,inactive: 0.00691
12,ACATTGTA,inactive: 0.302
13,GGCCACAC,inactive: -0.0674
14,TCGTTGCA,inactive: 0.0137
15,TAACAAAA,inactive: 0.119
16,AAGCCAAT,inactive: 0.0338
17,CACAGGCG,inactive: -0.13
18,GCAGATGC,inactive: -0.0883
19,GTCCGCCA,inactive: -0.0585
20,TTGCTAAA,inactive: -0.0511
21,AATGCTTG,inactive: 0.133
22,GCAAGGCA,inactive: -0.151
23,GGAAACAC,inactive: 0.197
24,ACGTGGCT,inactive: -0.0299
25,AGAGTTGC,inactive: -0.0805

row,Sequence,PBM E-score
1,ATATGGCC,inactive: 0.00585
2,GAAAACTA,inactive: 0.0925
3,AGCTAAAT,inactive: -0.0262
4,CGGAGAGC,inactive: -0.177
5,CGGGCGTC,inactive: -0.237
6,CTCGATTA,inactive: 0.108
7,CGATTGTA,inactive: 0.222
8,ATTGCCTC,inactive: 0.0151
9,CAAGGGTA,inactive: 0.0428
10,CATACACC,inactive: 0.15
11,AGGCTGCC,inactive: -0.295
12,TATGTTCA,active: 0.324
13,AACGTTGA,inactive: -0.0105
14,TGCACCAA,inactive: -0.0498
15,AACACACG,inactive: 0.248
16,ACGACCCT,inactive: -0.0829
17,CACCTCTG,inactive: -0.0318
18,AGGTGGTA,inactive: 0.0814
19,GCGAATGA,inactive: 0.0464
20,ACGTTTCT,inactive: 0.0569
21,AATCCAAC,inactive: 0.0622
22,CTCTCCAC,inactive: -0.142
